The values below come from the BET-seq Pho4 binding data (Le et al. 2018).

The other results are listed elsewhere or left out. Values were computed here from the reads of four pooled replicates and scatter widely.

This experiment has as its target T1, Pho4 (S. cerevisiae) (UniProt P07270).
T1 sequence: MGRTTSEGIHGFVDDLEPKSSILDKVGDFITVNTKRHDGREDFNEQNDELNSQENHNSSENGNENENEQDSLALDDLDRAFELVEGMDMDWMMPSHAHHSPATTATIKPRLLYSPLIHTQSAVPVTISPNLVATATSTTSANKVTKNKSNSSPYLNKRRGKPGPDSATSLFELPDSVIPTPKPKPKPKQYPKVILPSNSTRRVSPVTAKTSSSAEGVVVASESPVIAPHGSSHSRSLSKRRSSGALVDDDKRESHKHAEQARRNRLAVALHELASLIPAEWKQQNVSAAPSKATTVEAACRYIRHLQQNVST
Put plainly: relative binding free energy (BET-seq); higher = weaker binding. As to conditions: reference: library average.
Take TTGCTCACGTGCTGTG: the “relative binding free energy” value turned out to be 0.14 kcal/mol.

In the case of GTGGACACGTGATATG, the “relative binding free energy” value amounted to 0.11 kcal/mol.

For GGTTTCACGTGTGTTC, the “relative binding free energy” value amounted to 0.4 kcal/mol.

For AACGTCACGTGGGTAG, the “relative binding free energy” value was -0.11 kcal/mol.

With GTTTTCACGTGCAATA, the “relative binding free energy” value came to 0.43 kcal/mol.

As for TGTTTCACGTGTCACT, the “relative binding free energy” value stood at 0.25 kcal/mol. With TGGCACACGTGTTTGG the figure was 0 kcal/mol; with ATATACACGTGTTGTC, 0.16 kcal/mol. Take GTAGCCACGTGTGGGG: the “relative binding free energy” value is -0.07 kcal/mol. As to TTGTGCACGTGCTGAA, the “relative binding free energy” value was -0.08 kcal/mol. With TGGAACACGTGGCGCG the figure was 0.03 kcal/mol; with CCTGTCACGTGTGTGT, 0.04 kcal/mol.

Turning to ATTGACACGTGTTCTG, the “relative binding free energy” value worked out at 0.02 kcal/mol.

Regarding AAGGTCACGTGGGATC, the “relative binding free energy” value turned out to be 0.01 kcal/mol. With GGATTCACGTGGTAAG the figure was 0.33 kcal/mol. Consider TATTGCACGTGTCGGC, for which the “relative binding free energy” value came to 0.08 kcal/mol.

Turning to TAGGACACGTGATAGG, the “relative binding free energy” value turned out to be 0.11 kcal/mol.

Regarding TGGAACACGTGTTAGG, the “relative binding free energy” value came to 0.12 kcal/mol. For TTGTGCACGTGAGGCT, the “relative binding free energy” value is 0.24 kcal/mol. On to TTTTACACGTGCGATA, for which the “relative binding free energy” value was 0.15 kcal/mol. For TAGGCCACGTGGTGGA the value was -0.14 kcal/mol; for GCAGTCACGTGTTGGT, 0.23 kcal/mol; for TTTTCCACGTGCGGTT, 0.13 kcal/mol.

Consider GCGTACACGTGTAGTG, for which the “relative binding free energy” value stood at 0.07 kcal/mol. As to ACTGGCACGTGAGCGG, the “relative binding free energy” value was 0.06 kcal/mol. Consider AGTCTCACGTGTAGCG, for which the “relative binding free energy” value amounted to 0.31 kcal/mol. Consider TATTTCACGTGTAAAG, for which the “relative binding free energy” value was found to be 0.24 kcal/mol. For TTGGGCACGTGCTTAA the value was -0.19 kcal/mol; for TGAGTCACGTGTGGAG, 0.17 kcal/mol. For ATATGCACGTGGGTTA the value was -0.18 kcal/mol; for GTTATCACGTGGGGTA, 0.03 kcal/mol. With ATAGGCACGTGAGTTT the figure was 0.22 kcal/mol. As to TTCAACACGTGGAGGG, the “relative binding free energy” value is -0.04 kcal/mol.

For the sequence ATGGGCACGTGGAGCG, the “relative binding free energy” value is -0.11 kcal/mol. For the sequence TTCTGCACGTGGAGGA, the “relative binding free energy” value is 0.04 kcal/mol. Turning to GGGTGCACGTGTTTCT, the “relative binding free energy” value stood at 0.13 kcal/mol. With ATATGCACGTGAAATA the figure was 0.32 kcal/mol; with TTGTTCACGTGGAAAG, 0.32 kcal/mol; with CGTGGCACGTGTTGGT, -0.11 kcal/mol. Regarding TTATGCACGTGGCAGG, the “relative binding free energy” value is -0.04 kcal/mol. For GTATGCACGTGGAGGA the value was -0.05 kcal/mol. With TTTAACACGTGCTTTG the figure was -0.1 kcal/mol. With CGTTACACGTGCGGGG the figure was -0.1 kcal/mol; with TTAAGCACGTGGGAGC, -0.14 kcal/mol; with TTTCACACGTGTGGAT, 0.18 kcal/mol. Take ACTTTCACGTGTTCGT: the “relative binding free energy” value was found to be 0.28 kcal/mol.

As for GAGATCACGTGTAAGT, the “relative binding free energy” value came to 0.27 kcal/mol. For the sequence GACGGCACGTGGTGTG, the “relative binding free energy” value was -0.09 kcal/mol. With TAGAGCACGTGGATGC the figure was 0.01 kcal/mol; with TGGGGCACGTGGACGT, -0.21 kcal/mol; with AATGTCACGTGGGCGG, -0.01 kcal/mol. With TGGATCACGTGGCGTC the figure was 0.14 kcal/mol; with CGGTTCACGTGATGCT, 0.3 kcal/mol; with AGATTCACGTGCTTGG, 0.27 kcal/mol. With GGTGACACGTGTGGAC the figure was 0.11 kcal/mol; with ATAGTCACGTGAATTT, 0.41 kcal/mol.

For ATTTGCACGTGACTTG, the “relative binding free energy” value amounted to 0.11 kcal/mol. With TGACGCACGTGGGTAG the figure was -0.22 kcal/mol; with CAGGCCACGTGGTGGG, -0.05 kcal/mol; with AGAGACACGTGAGTAG, 0.29 kcal/mol. For TTCTGCACGTGCGGGT the value was 0 kcal/mol; for CATTTCACGTGGGGGT, 0.08 kcal/mol; for GGAGGCACGTGACGTG, 0.08 kcal/mol.

For GGAAGCACGTGTTGGA, the “relative binding free energy” value is -0.12 kcal/mol. With CGTTGCACGTGCAAGG the figure was 0.06 kcal/mol; with AGTGGCACGTGTATGA, 0.04 kcal/mol; with CTTTTCACGTGGTGTC, 0.02 kcal/mol. For GTGTACACGTGTATCT the value was 0.12 kcal/mol; for TTGTTCACGTGAGGAT, 0.45 kcal/mol.

As for TTTACCACGTGGTTAA, the “relative binding free energy” value is -0.03 kcal/mol.

For TGTGTCACGTGTTGTC, the “relative binding free energy” value came to 0.09 kcal/mol. For GATGACACGTGGGATT the value was -0.05 kcal/mol; for GGATACACGTGGAGTA, 0.07 kcal/mol; for CTAATCACGTGAGTGG, 0.32 kcal/mol. Consider TGCTTCACGTGCTTGT, for which the “relative binding free energy” value turned out to be 0.22 kcal/mol.

Regarding TGTGGCACGTGTTTGG, the “relative binding free energy” value worked out at 0 kcal/mol.

Consider ATGGACACGTGAAGTG, for which the “relative binding free energy” value was 0.18 kcal/mol. With GTTTGCACGTGCGTAG the figure was -0.01 kcal/mol. For ATTGTCACGTGATGAG the value was 0.17 kcal/mol. For TGTGGCACGTGAGATT the value was 0.16 kcal/mol; for TAGTTCACGTGTGTCA, 0.12 kcal/mol; for TTGGGCACGTGAGCGA, 0.2 kcal/mol.

On to GCTTGCACGTGTGGTG, for which the “relative binding free energy” value was determined as 0.09 kcal/mol. For ATATACACGTGTATTG the value was -0.1 kcal/mol; for GAGAACACGTGGGTTG, 0.01 kcal/mol; for TTGTGCACGTGGTATC, -0.17 kcal/mol. Take AGTGCCACGTGAGGTT: the “relative binding free energy” value was determined as 0.12 kcal/mol. For TATGCCACGTGATGGT the value was -0.05 kcal/mol; for GAGGTCACGTGGGCAG, 0.01 kcal/mol. With AGAGACACGTGAGGGC the figure was 0.17 kcal/mol. As to TGGTACACGTGGGCTT, the “relative binding free energy” value was -0.12 kcal/mol. With CAGTACACGTGAGTGT the figure was 0.14 kcal/mol.

Turning to AATGTCACGTGAGTGG, the “relative binding free energy” value was 0.23 kcal/mol. With AGTCGCACGTGTCGGG the figure was -0.01 kcal/mol; with TGTATCACGTGCGGCT, 0.09 kcal/mol.

For ACGGTCACGTGGAGCG, the “relative binding free energy” value was 0.15 kcal/mol.

As for CAGGTCACGTGATAGG, the “relative binding free energy” value turned out to be 0.26 kcal/mol.

As to TTAGCCACGTGTTTTT, the “relative binding free energy” value is -0.05 kcal/mol. With TAGGGCACGTGGAGCA the figure was -0.21 kcal/mol; with AATTACACGTGTTAGA, 0.15 kcal/mol; with TCGGGCACGTGATATA, 0.07 kcal/mol. With TGAGTCACGTGAGGTA the figure was 0.36 kcal/mol; with CAGGTCACGTGTTATG, 0 kcal/mol; with GGTAACACGTGGATTA, 0.2 kcal/mol.

With AATGGCACGTGAATTA, the “relative binding free energy” value came out at 0.15 kcal/mol.

Consider AGTTGCACGTGAAGCT, for which the “relative binding free energy” value is 0.23 kcal/mol. With AGGAGCACGTGGGGTC the figure was -0.29 kcal/mol; with ATACTCACGTGGGGAG, 0.08 kcal/mol. For TAATGCACGTGAAATG the value was 0.21 kcal/mol; for GGGAGCACGTGGTTGT, -0.04 kcal/mol.

For the sequence GTATGCACGTGAGATT, the “relative binding free energy” value stood at 0.18 kcal/mol. Consider ACGTGCACGTGTGAGT, for which the “relative binding free energy” value is -0.12 kcal/mol.

For the sequence AGGCTCACGTGCTGGT, the “relative binding free energy” value stood at 0.15 kcal/mol.

For the sequence TGTCTCACGTGTCGTT, the “relative binding free energy” value stood at 0.11 kcal/mol. For the sequence AGAAGCACGTGGTAAG, the “relative binding free energy” value is -0.07 kcal/mol.
